# Laboratory results reported in the supplement of paper PMC8728848.
# The other results are listed elsewhere or left out.
# Key:
# Experiment in all cases: glycan array binding signal (z-score within array); higher = stronger binding
# Settings in all cases: glycan notation: IUPAC condensed, linker removed
# [1] = target: Neu5Ac(a2-6)Gal(b1-4)GlcNAc(b1-6)[Gal(b1-3)]GalNAc
# Procedure, shortened: (§1)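 Glycan array binding is given as a within-array Z-score, which can be read as non-binding when negative. The arrays, 3228 of them, came from the Consortium for Functional Glycomics database and were retained only where the protein sequence was available. Z-scores were averaged across arrays of the same protein sequence at different concentrations or buffers and across linkers.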
# [2] = target: Neu5Ac(a2-6)Gal(b1-4)GlcNAc6S
# Procedure, shortened: as §1
# [3] = target: Neu5Ac(a2-6)GalNAc
# Procedure, shortened: as §1
# [4] = target: Neu5Ac(a2-6)GalNAc(b1-4)GlcNAc
# Procedure, shortened: as §1
# [5] = target: Neu5Ac(a2-6)GalNAc(b1-4)GlcNAc6S
# Procedure, shortened: as §1
# [6] = target: Neu5Ac(a2-6)GlcNAc(b1-4)GlcNAc
# Procedure, shortened: as §1
# [7] = target: Neu5Ac(a2-6)GlcNAc(b1-4)GlcNAc(b1-4)GlcNAc
# Procedure, shortened: as §1
# [8] = target: Neu5Ac(a2-8)Neu5Ac
# Procedure, shortened: as §1
# [9] = target: Neu5Ac(a2-8)Neu5Ac(a2-3)Gal(b1-3)GalNAc(b1-4)[Neu5Ac(a2-3)]Gal(b1-4)Glc
# Procedure, shortened: as §1
# [10] = target: Neu5Ac(a2-8)Neu5Ac(a2-3)Gal(b1-3)GalNAc(b1-4)[Neu5Ac(a2-8)Neu5Ac(a2-3)]Gal(b1-4)Glc
# Procedure, shortened: as §1
# [11] = target: Neu5Ac(a2-8)Neu5Ac(a2-3)Gal(b1-4)Glc
# Procedure, shortened: as §1
# [12] = target: Neu5Ac(a2-8)Neu5Ac(a2-3)Gal(b1-4)GlcNAc
# Procedure, shortened: as §1
# [13] = target: Neu5Ac(a2-8)Neu5Ac(a2-3)[Gal(b1-3)GalNAc(b1-4)]Gal(b1-4)Glc
# Procedure, shortened: as §1
# [14] = target: Neu5Ac(a2-8)Neu5Ac(a2-3)[GalNAc(b1-4)]Gal(b1-4)Glc
# Procedure, shortened: as §1
# [15] = target: Neu5Ac(a2-8)Neu5Ac(a2-8)Neu5Ac
# Procedure, shortened: as §1
# [16] = target: Neu5Ac(a2-8)Neu5Ac(a2-8)Neu5Ac(a2-3)Gal(b1-4)Glc
# Procedure, shortened: as §1
# [17] = target: Neu5Ac(a2-8)Neu5Ac(a2-8)Neu5Ac(a2-3)[Gal(b1-3)GalNAc(b1-4)]Gal(b1-4)Glc
# Procedure, shortened: as §1
# [18] = target: Neu5Ac(a2-8)Neu5Ac(a2-8)Neu5Ac(a2-3)[GalNAc(b1-4)]Gal(b1-4)Glc
# Procedure, shortened: as §1
# [19] = target: Neu5Ac(a2-8)Neu5Ac(a2-8)Neu5Ac(a2-8)Neu5Ac(a2-3)[GalNAc(b1-4)]Gal(b1-4)Glc
# Procedure, shortened: as §1
# [20] = target: Neu5Ac(a2-8)Neu5Gc(a2-3)Gal(b1-4)GlcNAc
# Procedure, shortened: as §1
# [21] = target: Neu5Ac(b2-6)Gal(b1-4)GlcNAc
# Procedure, shortened: as §1
# [22] = target: Neu5Ac(b2-6)GalNAc
# Procedure, shortened: as §1
# [23] = target: Neu5Ac9Ac(a2-3)Gal(b1-3)GlcNAc
# Procedure, shortened: as §1
# [24] = target: Neu5Ac9Ac(a2-3)Gal(b1-4)GlcNAc
# Procedure, shortened: as §1
# [25] = target: Neu5Ac9Ac(a2-6)Gal(b1-4)GlcNAc
# Procedure, shortened: as §1
# [26] = target: Neu5Gc(a2-3)Gal(b1-3)GlcNAc
# Procedure, shortened: as §1
# [27] = target: Neu5Gc(a2-3)Gal(b1-3)[Fuc(a1-4)]GlcNAc
# Procedure, shortened: as §1
# [28] = target: Neu5Gc(a2-3)Gal(b1-4)Glc
# Procedure, shortened: as §1
# [29] = target: Neu5Gc(a2-3)Gal(b1-4)GlcNAc
# Procedure, shortened: as §1
# [30] = target: Neu5Gc(a2-3)Gal(b1-4)GlcNAc(b1-3)Gal(b1-4)GlcNAc(b1-2)Man(a1-3)[Neu5Gc(a2-3)Gal(b1-4)GlcNAc(b1-3)Gal(b1-4)GlcNAc(b1-2)Man(a1-6)]Man(b1-4)GlcNAc(b1-4)GlcNAc
# Procedure, shortened: as §1
# [31] = target: Neu5Gc(a2-3)Gal(b1-4)[Fuc(a1-3)]GlcNAc
# Procedure, shortened: as §1
# [32] = target: Neu5Gc(a2-3)Gal(b1-4)[Fuc(a1-4)]GlcNAc
# Procedure, shortened: as §1
# [33] = target: Neu5Gc(a2-6)Gal(b1-4)GlcNAc
# Procedure, shortened: as §1
# [34] = target: Neu5Gc(a2-6)GalNAc
# Procedure, shortened: as §1
# [35] = target: Neu5Gc(a2-8)Neu5Ac(a2-3)Gal(b1-4)GlcNAc
# Procedure, shortened: as §1
# [36] = target: Neu5Gc(a2-8)Neu5Gc(a2-3)Gal(b1-4)GlcNAc
# Procedure, shortened: as §1
# [37] = target: Neu5Gc(a2-8)Neu5Gc(a2-3)Gal(b1-4)GlcNAc(b1-3)Gal(b1-4)GlcNAc
# Procedure, shortened: as §1
# [38] = target: Neu5Gc(a2-8)Neu5Gc(a2-6)Gal(b1-4)GlcNAc
# Procedure, shortened: as §1
# [39] = target: Neu5Gc(b2-6)Gal(b1-4)GlcNAc
# Procedure, shortened: as §1
binder,measurement,setting,value
"AAA (Anguilla anguilla), Q7SIC1 (protein) VIPEGYTQENVAVRGKATQSAQLRGEHAANSEASNAIDGNRDSNFYHGSCTHSSGQANPWWRVDLLQVYTITSVTITNRGDCCGERISGAEINIGQHLASNGVNNPECSVIGSMATGETKTFHCPAPMIGRYVVTYLPTSESLHLCEVEVNVDKPAAA",glycan array binding signal (z-score),[1],0.153
same,glycan array binding signal (z-score),[2],0.298
same,glycan array binding signal (z-score),[3],-0.098
same,glycan array binding signal (z-score),[4],-0.085
same,glycan array binding signal (z-score),[5],-0.189
same,glycan array binding signal (z-score),[6],1.7
same,glycan array binding signal (z-score),[7],2.46
same,glycan array binding signal (z-score),[8],-0.156
same,glycan array binding signal (z-score),[9],-0.282
same,glycan array binding signal (z-score),[10],-0.183
same,glycan array binding signal (z-score),[11],-0.169
same,glycan array binding signal (z-score),[12],-0.228
same,glycan array binding signal (z-score),[13],-0.117
same,glycan array binding signal (z-score),[14],-0.079
same,glycan array binding signal (z-score),[15],-0.346
same,glycan array binding signal (z-score),[16],-0.366
same,glycan array binding signal (z-score),[17],-0.09
same,glycan array binding signal (z-score),[18],0.123
same,glycan array binding signal (z-score),[19],-0.22
same,glycan array binding signal (z-score),[20],-0.177
same,glycan array binding signal (z-score),[21],-0.268
same,glycan array binding signal (z-score),[22],-0.224
same,glycan array binding signal (z-score),[23],-0.34
same,glycan array binding signal (z-score),[24],-0.102
same,glycan array binding signal (z-score),[25],-0.304
same,glycan array binding signal (z-score),[26],-0.228
same,glycan array binding signal (z-score),[27],-0.2
same,glycan array binding signal (z-score),[28],0.061
same,glycan array binding signal (z-score),[29],-0.006
same,glycan array binding signal (z-score),[30],-0.043
same,glycan array binding signal (z-score),[31],-0.157
same,glycan array binding signal (z-score),[32],0.394
same,glycan array binding signal (z-score),[33],0.298
same,glycan array binding signal (z-score),[34],-0.058
same,glycan array binding signal (z-score),[35],-0.29
same,glycan array binding signal (z-score),[36],-0.161
same,glycan array binding signal (z-score),[37],-0.231
same,glycan array binding signal (z-score),[38],-0.197
same,glycan array binding signal (z-score),[39],-0.178
